Test results: PubChem BioAssay AID1347073 (National Center for Advancing Translational Sciences (NCATS), 2019)
Hit rate of the full screen: of about 45,000 compounds, about 200 (0.44%) were called active. About 7% were inconclusive and are not listed. Calls come from the whole dose curve; as a rule, active = well fitted activation curve with a large enough effect; inconclusive = small, poorly fitted or top-dose-only effect; inactive = no such curve, though single readings can be large or run the other way. This is one part of the list.

Experiment: qHTS of TDP-43 Inhibitors: NCGC Sytravon Library Screen; note: 0% is about no effect; nearly all actives have a fitted effect of over 55% in size
Conditions: yeast TDP-43 toxicity rescue, BacTiter-Glo growth, 24 h; series mostly up to 46.1 µM; growth rescue (activation): at the top concentration
In short: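 TDP-43-expressing yeast, pregrown in raffinose, seeded at OD600 0.02 in galactose medium with compound for 24 hr at 30 deg C. Growth read by BacTiter-Glo luminescence, so rescue of toxicity appears as activation.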

SMILES | growth rescue (activation)
CN(C)c1cc(NC(=O)CN2CCCC2)c2ccccc2n1 | inactive: 4.36%
CCOc1ccc(-n2c(=O)c3sccc3n(CC(=O)NCC3CCCO3)c2=O)cc1 (stereo not drawn) | inactive: -2.72%
COc1ccc(C(=O)Nc2cc(C)nn2-c2cccc(F)c2)cc1 | inactive: 18.2%
COc1cc(NC(=O)c2cc(C)nc3ccccc23)cc(OC)c1 | inactive: 6.96%
COc1ccc(CCn2c(C3CCCCC3)nc3c(c(=O)c4ccccc4n3C)c2=O)cc1OC | inactive: -50.1%
O=C(CCN1CCN(c2ccccc2)CC1)N/N=C/c1ccccc1OC(F)F | inactive: -6.52%
Cc1ccc(NC(=O)Cn2nnc(-c3nc(-c4ccncc4)no3)c2N)c(C)c1 | inactive: -2.37%
CCOc1ccccc1N1CCN(S(=O)(=O)CC)CC1 | inactive: -14%
COc1cc(C2CC(=O)c3c(ccc4ccccc34)N2)ccc1O (stereo not drawn) | inactive: -5.67%
O=S(=O)(c1cccc2cccnc12)N1CCN(c2ccc(F)cc2)CC1 | inactive: 9.54%
CCn1c(SCC(=O)N/N=C(/C)c2ccncc2)nc2ccccc21 | inactive: 3.39%
CCCCN(C(=S)NC(=O)c1cc(OC)c(OC)c(OC)c1)c1c(N)n(Cc2ccccc2)c(=O)[nH]c1=O | inactive: -0.672%
CCOC(=O)c1c(NC(C)=O)c2c3c(sc2n1Cc1ccc(Cl)cc1)CCCC3 | inactive: -9.21%
Cc1c(C(=O)OCC(=O)Nc2c(C)n(C)n(-c3ccccc3)c2=O)cccc1[N+](=O)[O-] | inactive: 6.23%
O=C(Nc1cccc(C(F)(F)F)c1)c1ccc(-c2ccc(F)c(F)c2)c2ccoc12 | inactive: -2.45%
O=C(c1ccco1)N(Cc1cccc([N+](=O)[O-])c1)c1ccc(Br)cc1 | inactive: 28.3%
O=C(OCC(=O)N1CCOCC1)c1cc(-c2ccccc2)nc2ccccc12 | inactive: -2.57%
CCCN(Cc1cc2cc(OC)ccc2[nH]c1=O)C(=O)c1ccco1 | inactive: -31.3%
COc1cc2c(cc1OC)CN(C(=O)CN1C(=O)NC3(CCCCC3C)C1=O)CC2 (stereo not drawn) | inactive: 9.85%
CC1CCN(c2c(NCC3CCC(C(=O)NCCCc4ccccc4)CC3)c(=O)c2=O)CC1 (stereo not drawn) | inactive: -15.1%
O=C(CCCCCn1nnc2ccccc2c1=O)Nc1ccccc1F | inactive: 4.24%
NS(=O)(=O)c1ccc(CCNC(=O)CSc2ccc([N+](=O)[O-])cc2)cc1 | inactive: -1.92%
CC(=O)c1cc(-c2ccccc2)n(CCC(=O)NC2CCCCCCC2)c1C | inactive: -67.6%
Cc1ccc(C(C)C)c(OCCCNCc2cccnc2)c1 | inactive: 1.61%
O=C(O)CC(=O)NC12CC3CC(CC(C3)C1)C2 | inactive: 13.6%
CCCc1nc2nc(C)c(NS(=O)(=O)c3ccc(F)cc3)c(=O)n2[nH]1 | inactive: -13.3%
COc1ccc(NC(=O)C2(C)Cc3c(-c4cccc(C(N)=O)c4)ccnc3O2)cn1 (stereo not drawn) | inactive: 6.26%

SMILES | growth rescue (activation)
COc1ccc(NC(=O)Nc2c[nH]c(=O)[nH]c2=O)cc1 | inactive: 10.2%
CC(C)NC(=O)C1(C)CCN1C(=O)C1(c2ccccc2)CCCC1 (stereo not drawn) | inactive: 20.5%
COc1ccc(NC(=O)C(c2ccc(C)cc2)N(C)C(=O)c2ccc(=O)[nH]c2)cc1 (stereo not drawn) | inactive: 21.4%
O=C(NC(c1ccccc1)c1cnccn1)C1CCN(Cc2ccc(Cl)c(Cl)c2)CC1 (stereo not drawn) | inactive: -8.82%
CC(=O)N1N=C(c2ccc(NS(C)(=O)=O)cc2)CC1c1ccc2nccnc2c1 (stereo not drawn) | inactive: -7.91%
NS(=O)(=O)c1ccc(NC(=O)CSc2ncccn2)cc1 | inactive: -0.0304%
O=C(NCCc1ccccc1)C(c1ccccc1F)N(C(=O)c1csnn1)C1CC1 (stereo not drawn) | inactive: -1.75%
COc1ccccc1C(C)NC(=O)c1ccc(S(=O)(=O)NCc2ccco2)cc1 (stereo not drawn) | inactive: -10.4%
COc1ccccc1OCCCOc1ccc(C)cc1Br | inactive: 14.2%
CCn1c(SCC(=O)Nc2nncs2)nnc1-c1ccco1 | inactive: 15.7%
CCOC(=O)c1sc(NC(=O)C2CC(=O)N(c3ccc(OCC)cc3)C2)nc1C (stereo not drawn) | inactive: 6.12%
CCCC(=O)N1CCCC(c2cc(C(=O)NCc3ccccc3)no2)C1 (stereo not drawn) | inactive: 14.9%
CCOCCCNC(=O)Cn1cnc2c(cnn2-c2ccc(OC)cc2)c1=O | inactive: -2.58%
COc1ccc(CC(=O)Nc2ccc(OC(C)=O)cc2C(=O)O)cc1 | inactive: -0.865%
Cc1cc(=O)oc2cc(OCC(=O)OCC(=O)Nc3ccc(C(C)C)cc3)ccc12 | inactive: 0.602%
CC1CCC(NC(=O)c2ccc3c(c2)N(Cc2ccccc2)C(=O)c2ccccc2S3(=O)=O)CC1 (stereo not drawn) | inactive: 3.12%
Cc1ccc(-c2nc(CN(CC3CCC3)CC3CCCO3)c(C)o2)s1 (stereo not drawn) | inactive: -1.16%
CCc1nc2c(OCc3c(C)noc3C)cccn2c1N(C=O)Cc1ccc(OC)cc1 | inactive: 1.05%
CCOC(=O)CNc1nc2ccccc2n2c(C)nnc12 | inactive: -1.04%
CCOC(=O)C1CCN(C(=O)CNC(=O)Cn2c(C)cc3ccccc3c2=O)CC1 | inactive: -2.05%
CN(CC(=O)NCCc1ccc(S(N)(=O)=O)cc1)S(=O)(=O)c1ccc(Br)s1 | inactive: -1.66%
CSc1ccccc1NC(=O)CSc1nnc(CNC(=O)c2ccccc2F)n1C | inactive: 4.25%
Cc1ccc(NC(=O)c2ccc(OC(=O)COc3ccc(Cl)c(C)c3)cc2)cc1 | inactive: 10.3%
COc1ccc([N+](=O)[O-])cc1NC(=O)c1cccs1 | inactive: -8.68%
O=C(Cc1cccs1)Nc1cccc(-c2nnc(-c3ccco3)o2)c1 | inactive: -4.19%
CCOc1cc(N2CCOCC2)c(OCC)cc1NC(=O)COC(=O)c1ccc([N+](=O)[O-])o1 | inactive: -48.7%
